Measured values published in paper PMC4336329 (PLoS ONE, 2015).
In all, about 310,000 compounds went through this assay and about 14,000 (4.5%) showed an effect of 50% or more. Effects have a minus sign here. The list shows a part of the results.

Molecular target: human ether-à-go-go-related gene (hERG) potassium channel (human, UniProt Q12809)
Experiment: primary screen, population patch clamp on CHO cells stably expressing hERG
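Also: peak tail current of the secondary pulse compared with the same well before compound.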

human ether-à-go-go-related gene (hERG) potassium channel, sequence (Q12809 whole entry, looked up): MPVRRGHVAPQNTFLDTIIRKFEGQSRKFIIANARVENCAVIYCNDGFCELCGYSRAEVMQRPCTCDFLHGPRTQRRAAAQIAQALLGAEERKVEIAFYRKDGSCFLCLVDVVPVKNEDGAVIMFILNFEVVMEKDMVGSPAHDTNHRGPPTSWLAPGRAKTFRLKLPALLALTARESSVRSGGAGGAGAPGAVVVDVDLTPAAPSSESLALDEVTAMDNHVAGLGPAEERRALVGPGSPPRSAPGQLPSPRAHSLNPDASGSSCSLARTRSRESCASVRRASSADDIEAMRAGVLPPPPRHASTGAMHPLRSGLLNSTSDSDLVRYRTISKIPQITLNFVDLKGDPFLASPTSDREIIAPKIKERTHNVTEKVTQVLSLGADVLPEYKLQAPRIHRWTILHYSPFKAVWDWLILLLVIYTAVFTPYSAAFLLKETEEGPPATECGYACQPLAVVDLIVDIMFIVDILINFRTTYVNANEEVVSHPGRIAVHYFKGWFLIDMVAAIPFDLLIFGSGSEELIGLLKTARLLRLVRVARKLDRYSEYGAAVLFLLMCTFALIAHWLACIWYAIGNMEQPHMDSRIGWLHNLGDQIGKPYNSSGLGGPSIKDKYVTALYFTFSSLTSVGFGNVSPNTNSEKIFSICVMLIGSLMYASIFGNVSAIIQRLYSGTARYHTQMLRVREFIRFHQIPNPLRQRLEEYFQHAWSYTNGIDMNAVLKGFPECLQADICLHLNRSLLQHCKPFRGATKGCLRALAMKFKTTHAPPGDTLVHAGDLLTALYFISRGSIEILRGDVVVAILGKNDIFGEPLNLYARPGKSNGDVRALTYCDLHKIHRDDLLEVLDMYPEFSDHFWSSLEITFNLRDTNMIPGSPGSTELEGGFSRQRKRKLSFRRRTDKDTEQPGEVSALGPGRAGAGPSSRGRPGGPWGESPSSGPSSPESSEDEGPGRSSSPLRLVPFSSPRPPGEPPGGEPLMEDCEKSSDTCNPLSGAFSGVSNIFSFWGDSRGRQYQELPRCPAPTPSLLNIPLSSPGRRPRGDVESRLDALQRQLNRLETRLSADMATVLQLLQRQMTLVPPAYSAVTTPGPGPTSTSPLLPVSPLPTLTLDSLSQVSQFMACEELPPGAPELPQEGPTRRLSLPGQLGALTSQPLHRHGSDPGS

SMILES	hERG current change (%, negative = inhibition) at 10uM
CCN1CCN(C(=S)Nc2ccc([N+](=O)[O-])cc2)CC1	-26.6%
O=C(CN1C(=O)/C(=C/c2cccc(Br)c2)SC1=S)Nc1cccnc1	2.48%
COc1ccc(OC(=O)c2cccc(S(=O)(=O)N3CC(C)OC(C)C3)c2)cc1 (stereo not shown)	-24.9%
COc1ccccc1CNC(=O)COC(=O)c1ncc(Cl)c(Cl)c1Cl	9.13%
O=C(OCC(=O)N1N=C(c2ccc(Cl)cc2)CC1c1ccco1)c1ccccc1O (stereo not shown)	11.6%
CCc1ccc(CNC(=O)CCc2nnc(CCc3ccc(OC)cc3)o2)nc1	-42.5%
CC1CCCC(NC(=O)COC(=O)COc2ccccc2Cl)C1C (stereo not shown)	15.8%
O=C(NCCc1ccccc1F)c1ccc2c(c1)OCCO2	6.59%
CCOC(=O)[C@@H]1[C@H]2COc3cc(OC)ccc3[C@@H]2N2C(=O)N(c3ccc(Cl)cc3)C(=O)[C@]12C	-4.63%
CCOc1ccccc1C(=O)NC(C)c1ccc(-n2ccnc2)cc1 (stereo not shown)	-57.5%
CCOC(=O)[C@@H]1[C@H]2COc3ccc(Br)cc3[C@H]2N2C(=O)N(c3cccc(Cl)c3)C(=O)[C@]12C	3.34%
CCn1c(C)cs/c1=N\C(=S)Nc1ccccc1C	-9.03%
CC1Cc2ccccc2N1Cc1nc2cc(Cl)ccc2c(=O)[nH]1 (stereo not shown)	5.4%
CCN(CC(=O)Nc1ccc2c(c1)OCCO2)CC(=O)Nc1ccc2c(c1)OCO2	28%
O=C(OCC(=O)N(c1ccccc1)C1CCCCC1)c1ccc(CO)cc1	-0.154%
COCc1[nH]nc2c1C1(C(=O)N(C)c3ccccc31)C(C#N)=C(N)O2 (stereo not shown)	6.59%
COC(=O)C1=C(C)N=C2SCCC(=O)N2C1c1cccs1 (stereo not shown)	10.4%
COc1cccc(NC(=O)C2C3C=CC(C3)C2C(=O)O)c1 (stereo not shown)	8.61%
O=C1/C(=C/c2cccs2)SC(=S)N1NS(=O)(=O)c1ccccc1	-18.2%
COc1ccccc1NC(=O)c1csc2c1CCCC2	-8.98%
COc1ccccc1CCC(=O)Oc1ccccc1C#N	1.39%
Cc1nc2ccc(Cl)cn2c1C(=O)NN	10.9%

SMILES	hERG current change (%, negative = inhibition) at 10uM
COc1ccc2[nH]c3c(=O)n(Cc4ccc(C(=O)N5CCCC5)cc4)c(=S)[nH]c3c2c1	18.2%
CCOc1ccccc1CNC(=O)Cn1c(=O)oc2ccccc21	9.29%
CCS(=O)(=O)c1ccc2oc(SCC(=O)Nc3ccc(OC)cc3)nc2c1	30%
COc1cccc(NC(=O)C(=S)NC2CCCCC2)c1	1.42%
CC1CC(NC(=O)c2ncn[nH]2)CC(C)(C)C1 (stereo not shown)	-10.1%
CCOC(=O)c1ccccc1NC(=O)CSc1nc2ccncc2[nH]1	2.39%
O=C(/C=C1\NC2(CCCC2)Cc2ccccc21)C(=O)N/N=C/c1ccc(O)c(O)c1	-21.8%
Clc1ccccc1CSc1nncn1-c1cccnc1	1.94%
CC1CCN(S(=O)(=O)c2cccc(C(=O)NCc3ccco3)c2)CC1	-48.1%
N/C(=N\OC(=O)CCCCCN1C(=O)c2ccccc2C1=O)c1ccccc1	-0.332%
NCCc1c(Cc2ccccc2)[nH]c2ccccc12	-15.8%
COC(=O)C1C(O)=C(C=NCC(C)N=CC2=C(O)C(C(=O)OC)C(C)(C)CC2=O)C(=O)CC1(C)C (stereo not shown)	14.8%
COC(=O)c1ccc(C(=O)N2CCCC(N3CCN(c4ccc(F)cc4)CC3)C2)nc1 (stereo not shown)	-56.1%
Cc1ccc(NC(=O)CNCc2ccc(Cl)cc2Cl)cc1S(=O)(=O)N(C)C	-28.1%
CCOc1ccc(/C=N/OCC(=O)Nc2cc(S(=O)(=O)N3CCOCC3)ccc2OC)cc1	4.31%
Cc1ccsc1C(=O)N(Cc1nnc(-c2ccccc2Cl)o1)C1CC1	-17.9%
NC(=O)c1ccc[n+](CC(=O)c2ccc(Cl)c(Cl)c2)c1.[Br-]	-5.23%
CCC(C)NC(=O)c1ccccc1C(=O)NC(C)CC (stereo not shown)	1.76%
NS(=O)(=O)c1ccc(CCNC(=O)CCCCCNc2nc(=S)[nH]c3ccccc23)cc1	24.4%
CCOc1[nH]n(-c2ccc(Cl)cc2)c(=O)c1C=Nc1ccc(Cl)cc1	14.4%
O=C(Cn1nc([N+](=O)[O-])nc1Br)NC(c1ccccc1)c1ccccc1	-1.65%
CC1(C)C(=O)C2(CCCCC2)C(=O)OC1c1cccc([N+](=O)[O-])c1 (stereo not shown)	-2.69%

SMILES	hERG current change (%, negative = inhibition) at 10uM
O=C(Nc1cc(C(F)(F)F)ccc1N1CCCCC1)c1ccco1	21.2%
Cc1ccc(C2=NN(C(=O)CCCC(=O)O)C(c3ccco3)C2)cc1 (stereo not shown)	21.4%
COc1cccc(CN2CC(C(=O)N(C)CCCC3CCCC3)CCC2=O)c1 (stereo not shown)	-21%
COc1cc(S(=O)(=O)N2CCCCCC2)ccc1Cl	-37.2%
Cc1nc([N+](=O)[O-])cn1CC(=O)c1ccc(Cl)cc1	11.9%
Cc1[nH]nc2c1C(c1ccc(N(C)C)cc1)C1=C(CC(C)(C)CC1=O)N2 (stereo not shown)	28.2%
O=C(Oc1cc2oc(=O)cc(-c3ccccc3)c2cc1Cl)C1CCCCC1	4.05%
CN1CCN(c2ccc(S(=O)(=O)N3CCOCC3)cc2NC(=O)CCc2ccccc2)CC1	-8.75%
COc1cc(C(C)=O)ccc1OCC(O)CN1CCN(c2ccccn2)CC1 (stereo not shown)	-9.62%
Cc1cc(C)c2nc(NNC(=O)c3ccc(S(=O)(=O)N4CCCCC4)cc3)sc2c1	4.21%
CCN1CCN(C(=O)c2ccc(OCC(=O)Nc3ccc(F)cc3)c(OC)c2)CC1	-14.9%
CC(=O)N(C)N1c2ccccc2CCc2ccccc21	10.9%
COc1ccccc1NC(=O)C1CCN(S(C)(=O)=O)CC1	18.8%
NC(=O)CN1CCN(C2CC(=O)N(CCc3ccccc3)C2=O)CC1 (stereo not shown)	4.38%
Cc1cccc(N2CCCC2=Nc2ccc(Br)cc2C#N)c1	14.4%
Cn1cccc1C(=O)C(=O)Nc1ccc(Cl)cc1	4.11%
Cl.Fc1cccc(CN(C2=NCCN2)c2c(Cl)cccc2Cl)c1	-10%
Cc1cc(N(C)C)cc(C)[n+]1[O-]	13.8%
COc1ccc(CNC(=O)[C@H](C)NC(=O)C2CCN(C(=O)[C@@H](N)CCSC)CC2)cc1	5.47%
CCOC(=O)C1CCCN(C(=O)c2ccc3nc(-c4ccccc4)c(-c4ccccc4)nc3c2)C1 (stereo not shown)	1.06%
O=C(NCCOc1ccccc1)c1cccc(S(=O)(=O)NCc2ccccc2)c1	-16.8%
CCc1ccc(NC(=O)CO/N=C(\C)c2cc3ccccc3o2)cc1	-11%

SMILES	hERG current change (%, negative = inhibition) at 10uM
CC(=O)Nc1cccc2c1C(=O)N(c1cccc(C)c1)C2=O	5.57%
N#CCCN(C(=O)COC(=O)c1ccc(S(=O)(=O)N2CCCC2)cc1)c1cccc(Cl)c1	10.7%
CCC(C)N(C(=O)Cn1nnc(-c2ccc(Cl)cc2)n1)C1CCS(=O)(=O)C1 (stereo not shown)	-12.5%
Cc1nnc(-n2ncc(C#N)c2N)c2nn(-c3cccc(Cl)c3)c(C)c12	-33.5%
CCN(CC(=O)Nc1ccc(OC)cc1)CC(=O)Nc1ccc(Cl)cc1F	-6.34%
CC1=Nc2cc(C(=O)NCCCOC(C)C)ccc2Sc2ccccc21	-19.3%
CCCN=Cc1sc2ccc(OCC)cc2c1O	-4.28%
CCCCCn1nc(C)c2c(C)cc(=O)[nH]c21	16.3%
COc1ccc(N(C(C)=O)c2nc3ccccc3[nH]2)cc1	0.757%
CCOCCCNC(=O)CN1N=C(c2ccc(C)cc2)CCC1=O	-73.9%
Cc1[nH]c(=O)c(C#N)c(C)c1Br	7.33%
CCN(CC)c1ccc(NC(=O)c2cccnc2)c(C)c1	26.9%
O=C(c1ccc(Cl)cc1)c1ccc(OCC(=O)N2CCOCC2)cc1	-40.8%
CC1CC(C)CN(C(=O)CSC2=Nc3ccccc3C3=NC(Cc4c[nH]c5ccccc45)C(=O)N23)C1 (stereo not shown)	-18.3%
CCOC(=O)Cn1c(=O)c(-c2ccccc2NC)nc2ccccc21	1.02%
COc1cc(=O)[nH]c(SC(C)C(=O)Nc2cccc3ccccc23)n1 (stereo not shown)	3.85%
CCN(CC(=O)NC(C)C)C(=O)Cc1ccc(C)c(C)c1	7.89%
CC(C)c1ccc(OCCCCN2CCCCC2)cc1.O=C(O)C(=O)O	-58.8%
CC1CC(CCC(=O)NC(=S)Nc2ccc(Cl)cn2)C(=O)O1 (stereo not shown)	-24.2%
O=C1C(=O)N(CCN2CCOCC2)C(c2ccccc2)/C1=C(\O)c1ccc2c(c1)OCCO2 (stereo not shown)	-15.5%
Cc1cc(C)nc(SCc2ccc(C(=O)NN=C3CCCC3)cc2)n1	15.8%
Cc1cccc(-c2nc(Nc3cccc(O)c3)c3ccccc3n2)c1	21.8%
